# Structures can show the parent of a compound that is named as a salt. ± gives the standard deviation of the averaged measurements. Over roughly 2,600 compounds, “MBP+ mature oligodendrocyte number relative to DMSO vehicle control” has its median near -0.34; the highest 2% begin near 13. This is one part of the list.
# Tested on: jimpy (Plp1 jimpy) mouse iPSC-derived oligodendrocyte progenitor cells
# Assay: MBP+ mature oligodendrocyte number relative to DMSO vehicle control (SDs above negative control mean); higher = more surviving jimpy oligodendrocytes (rescue)
# Conditions: 10 µM; 3 days
# Description: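 Primary phenotypic screen of >3,000 bioactive compounds (Selleck L1700 and Sigma LO1280 libraries) at a single dose of 10 µM. Compounds were added to jimpy (Plp1 mutant) mouse iPSC-derived OPCs at the start of thyroid hormone-induced oligodendrocyte differentiation, one well per compound in 384-well plates. After 3 days cells were stained for MBP, Sox10 and DAPI and imaged with an Operetta system. MBP+ oligodendrocyte number and total cell number were expressed as the number of SDs above the mean of the DMSO negative control on the same plate (n=16 control wells per plate). Hits were defined as >=4 SD for oligodendrocytes and >=2 SD for total cells.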
row,SMILES,MBP+ mature oligodendrocyte number
1,CCOC(=O)C1=C[C@]2(CC)CCCN3CCc4c(n1c1ccccc41)[C@@H]32 [Vinpocetine],-1.07
2,CC(C)c1cc(C(=O)N2Cc3ccc(CN4CCN(C)CC4)cc3C2)c(O)cc1O,< -6.7
3,Cc1nc(NC(=O)N2CCC[C@H]2C(N)=O)sc1-c1ccnc(C(C)(C)C(F)(F)F)c1,-5.69
4,CC(C)C[C@H](NC(=O)[C@H]1O[C@@H]1C(=O)O)C(=O)NCCCCN=C(N)N,-4.25 ± 0.29
5,CC1(C)NC(=O)N(c2ccc([N+](=O)[O-])c(C(F)(F)F)c2)C1=O [Nilutamide],-0.755
6,CN(C)Cc1ccc(-c2nc3cccc4c3n2CCNC4=O)cc1,2.97
7,O=C(/C=C\n1cnc(-c2cc(C(F)(F)F)cc(C(F)(F)F)c2)n1)NNc1cnccn1,-6.01
8,Cc1[nH]c(/C=C2\C(=O)Nc3ccc(S(=O)(=O)N(C)c4cccc(Cl)c4)cc32)c(C)c1C(=O)N1CCN(C)CC1,< -6.7
9,C=C(C)[C@@H]1CC=C(C(=O)O)CC1 [(-)-Perillic acid],-0.711
10,COC(=O)[C@@H]1[C@H]2C[C@H]3c4[nH]c5ccccc5c4CCN3C[C@@H]2CC[C@@H]1O [Yohimbine HCl],-3.35
11,COC(=O)[C@@H]1[C@H]2C[C@H]3c4[nH]c5ccccc5c4CCN3C[C@@H]2CC[C@@H]1O [Yohimbine hydrochloride],-2.21
12,Oc1c2ccccc2c2c3c(cccc13)N=N2,-2.59 ± 1.1
13,O=C1CCc2cc(OCCCCc3nnnn3C3CCCCC3)ccc2N1 [Cilostazol],6.25 ± 6.1
14,N#C[C@@H]1C[C@@H]2C[C@@H]2N1C(=O)[C@@H](N)C12CC3CC(CC(O)(C3)C1)C2 [Saxagliptin],6.46
15,CCS(=O)(=O)CCn1c([N+](=O)[O-])cnc1C [Tinidazole],0.744
16,CCCCOc1cc(C(=O)NCCN(CC)CC)c2ccccc2n1 [Dibucaine HCl],7.16
17,O=P(O)(O)C(Cl)(Cl)P(=O)(O)O [Clodronic acid],0.869
18,Cc1coc2c1C(=O)C(=O)c1c-2ccc2c(C)cccc12 [Tanshinone I],2.8
19,C[C@@]12C[C@@]3(O)O[C@@H](O1)[C@]1(COC(=O)c4ccccc4)[C@H]3C[C@@]12O[C@@H]1O[C@H](CO)[C@@H](O)[C@H](O)[C@H]1O [Paeoniflorin],-0.556
20,COc1cc(Nc2nc3ccccc3nc2NS(=O)(=O)c2ccc(NC(=O)c3ccc(C)c(OC)c3)cc2)cc(OC)c1,3.94
21,Cc1ccccc1-n1c(Cn2nc(-c3cccc(O)c3)c3c(N)ncnc32)nc2cccc(C)c2c1=O,-4.75
22,CCC1=C(C)CN(C(=O)NCCc2ccc(S(=O)(=O)NC(=O)N[C@H]3CC[C@H](C)CC3)cc2)C1=O [Glimepiride],0.72

# From the supplement of paper PMC6135742
